According to PubChem BioAssay AID686978 (National Center for Advancing Translational Sciences (NCATS), 2013):
Hit rate of the full screen: of about 420,000 compounds, about 64,000 (15%) were called active. Inconclusive results, whose numbers are uncertain, are shown with a selection of clear calls. The call rests on the fitted dose curve; in most records, active means well fitted inhibition curve with a large enough effect; inconclusive means small, poorly fitted or top-dose-only effect; inactive means flat fitted curve, though single readings scatter. No potency is given beside an inconclusive call; the fits are too rough.

Assay: qHTS for Inhibitors of human tyrosyl-DNA phosphodiesterase 1 (TDP1): qHTS in cells in absence of CPT; further: nearly all actives have a fitted effect of over 55% in size
Conditions: DT40 Tdp1-/- hTDP1 cells, no CPT, ATP luminescence, 48 h; activity change, negative = growth inhibition: at 46.2 µM (top of the series)
Outline: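 No-CPT arm: Tdp1-/-;hTDP1 DT40 cells (400/well) plus compounds, incubated ≥48 hr at 37 °C. Readout CellTiter-Glo luminescence.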
On the % scale 0 is the no-effect control and ±100 the full control effect; potency means the concentration at half of the fitted maximal effect; tags describe the fitted curve by direction and shape.

Compound | Potency | activity change, negative = growth inhibition
CCn1c(/C=C/c2ccccc2Cl)nc2ccccc2c1=O | active: 16.4 µM | –
O=C(COc1ccccc1)Nc1ccccc1N1CCN(c2ccc(F)cc2)CC1 | inconclusive [inhibitor, single point] | –
CN(Cc1ccccc1)S(=O)(=O)c1ccc(Cl)c(C(=O)NCCc2ccccn2)c1 | inconclusive [inhibitor, single point] | –
CCn1c(=O)cc(SCC(=O)Nc2cccc(C)n2)c2ccccc21 | inconclusive [inhibitor, single point] | –
Cc1c2cnn(CC(=O)N3CCCCC3)c(=O)c2c(C)n1Cc1ccc(F)cc1 | inconclusive [inhibitor, single point] | –
N/C(=N\OC(=O)COc1ccc2ccccc2c1)c1ccncc1 | inconclusive [inhibitor, partial curve] | –
COc1cc(NS(=O)(=O)c2ccc(NC(=O)c3ccc(F)cc3)cc2)ncn1 | inactive | –
S=C(NCCc1ccccc1)Nc1ccc(N2CCCCC2)cc1 | inconclusive [inhibitor, single point] | –
Cc1ccccc1C(=O)N1CCCC(CCC(=O)N2CCN(c3ccccn3)CC2)C1 (stereo not drawn) | inconclusive [inhibitor, single point] | –
CCOC(=O)N1CCN(Cc2nc(Cc3cccc(C(F)(F)F)c3)no2)CC1 | inconclusive [inhibitor, single point] | –
CCOc1ccc(C(c2c(O)cc(C)n(CCOC)c2=O)N2CCN(c3ccccc3)CC2)cc1 (stereo not drawn) | inactive | –
O=C1N=C2N(CCN3CCCCC3)c3ccccc3N2/C1=C\c1ccc([N+](=O)[O-])s1 | inconclusive [inhibitor, full curve] | –
CCC1CCCCN1CCCNC(=O)c1[nH]c2ccccc2c1Sc1ccc(Cl)cc1 (stereo not drawn) | inconclusive [inhibitor, single point] | –
Cc1c(Br)cnn1C(C)C(=O)N1CCN(c2ccccc2F)CC1 (stereo not drawn) | inconclusive [inhibitor, single point] | –
CCc1ccc(CN(C)C(=O)CCc2nnc(CCc3cccc(OC)c3)o2)nc1 | inconclusive [inhibitor, single point] | –
COc1ccc(-c2noc(N3CCC(C(=O)Nc4ccc(F)cc4Cl)CC3)n2)cc1 | inconclusive [inhibitor, single point] | –
Cc1ccc(N(Cc2ccccc2O)C(=O)c2ccccc2F)cc1 | inconclusive [inhibitor, partial curve] | –
CC(C)Oc1ccc(C(=O)NCc2cccs2)cc1 | inconclusive [inhibitor, partial curve] | –
Cc1ccc(CNC(=O)[C@@H](NC(=O)Cc2ccccc2)C(C)C)cc1 | inconclusive [inhibitor, single point] | –
Nc1nc(N)c2[nH]c(-c3ccccc3)nc2n1 | inactive | –
C[C@@H]1CC=C[C@@H]2[C@H]1C(=O)N(Cc1ccccc1)[C@H]2c1cccc(Br)c1 | inconclusive [inhibitor, single point] | –
C=CCNc1ncnc2c1ncn2[C@H]1CN(Cc2ccc(-c3ccccc3)cc2)C[C@@H](CO)O1 | active: 23.1 µM | –

Compound | Potency | activity change, negative = growth inhibition
O=C(CSc1ncn[nH]1)N/N=C/c1ccc(Br)cc1 | inconclusive [inhibitor, single point] | –
CCOc1ccccc1C(=O)OC(C)C(=O)Nc1ccc(S(=O)(=O)N2CCCC2)cc1 (stereo not drawn) | inconclusive [inhibitor, single point] | –
O=C(Cc1ccc(F)cc1)Nc1nnc(-c2ccc(F)cc2)o1 | inconclusive [inhibitor, single point] | –
CSc1nc(-c2ccco2)nn1C(=O)CCc1ccccc1 | inactive | –
O=C(Cc1ccc2c(c1)OCCO2)N1CCN(c2ccccc2)CC1 | inconclusive [inhibitor, single point] | –
CN(C)S(=O)(=O)c1cccc(C(=O)Nc2cc(S(=O)(=O)N3CCOCC3)ccc2O)c1 | inactive | –
Cc1ccc(-c2cn3nc(N4CCCC(C(=O)Nc5ccc(F)cc5)C4)sc3n2)cc1 (stereo not drawn) | active: 18.4 µM | –
CCOC(=O)c1sc(NCc2ccco2)c(-c2nc3ccccc3s2)c1N | inconclusive [inhibitor, partial curve] | –
O=C(NCCc1c[nH]c2ccccc12)/C(=C/c1ccco1)NC(=O)c1ccco1 | inactive | –
O=C(Cn1c(=O)c2c(ncn2C2CCCC2)n(Cc2ccccc2)c1=O)N1CCc2ccccc21 | – | inconclusive: -33.3% [inhibitor]
CC1CC1C(=O)N1CCN(S(=O)(=O)c2cc(C(F)(F)F)cc(C(F)(F)F)c2)CC1 (stereo not drawn) | inconclusive [inhibitor, single point] | –
O=C(NCCc1ccc(F)cc1)C(=O)NCC(c1cccs1)S(=O)(=O)c1ccc(F)cc1 (stereo not drawn) | inconclusive [inhibitor, single point] | –
COc1cccc2c1C(=O)C[C@]1(CCCC[C@@H]1C)O2 | inconclusive [inhibitor, partial curve] | –
Cc1ccc2sc(N3CCN(C(=O)CCS(=O)(=O)c4ccc(Cl)cc4)CC3)nc2c1C | active: 2.31 µM | –
CCOc1cc(CNCc2ccccn2)cc(Cl)c1OC | inactive | –
CC(C)c1ccc(CC(=O)N2CCC2(C)C(=O)NCc2cccc3ccccc23)cc1 (stereo not drawn) | inconclusive [inhibitor, single point] | –
COc1ccc(C(O)c2nc(-c3ccoc3)cs2)cc1 (stereo not drawn) | inconclusive [inhibitor, single point] | –
NS(=O)(=O)OCCCc1ccc(C(F)(F)F)cc1 | inconclusive [inhibitor, partial curve, poor fit] | –
Cc1ccnc(N2CCC(C(=O)Nc3ccc4c(c3)CCC4)CC2)n1 | inconclusive [inhibitor, partial curve] | –
CSc1ccc(NC(=O)N2CC(C)OC(C)C2)cc1 (stereo not drawn) | inactive | –
Cc1c(C)n(Cc2ccccc2)c2ncnc(NCCN(C)C)c12 | inconclusive [inhibitor, single point] | –
